Experimental data taken from the supplement of paper PMC3334620.
Over roughly 33,000 sequences, “E-score (-0.5 to 0.5)” has its median near -0.043; the highest 2% begin near 0.37. Some of the results follow.

target: T1, Upc2 (UniProt Q12151); test: PBM E-score (8-mer binding enrichment) (E-score (-0.5 to 0.5)); higher = stronger / more preferred TF binding; most listed sequences are background and not binding sites; details: protein concentration: 200 nM; construct: GST-full length
T1 sequence: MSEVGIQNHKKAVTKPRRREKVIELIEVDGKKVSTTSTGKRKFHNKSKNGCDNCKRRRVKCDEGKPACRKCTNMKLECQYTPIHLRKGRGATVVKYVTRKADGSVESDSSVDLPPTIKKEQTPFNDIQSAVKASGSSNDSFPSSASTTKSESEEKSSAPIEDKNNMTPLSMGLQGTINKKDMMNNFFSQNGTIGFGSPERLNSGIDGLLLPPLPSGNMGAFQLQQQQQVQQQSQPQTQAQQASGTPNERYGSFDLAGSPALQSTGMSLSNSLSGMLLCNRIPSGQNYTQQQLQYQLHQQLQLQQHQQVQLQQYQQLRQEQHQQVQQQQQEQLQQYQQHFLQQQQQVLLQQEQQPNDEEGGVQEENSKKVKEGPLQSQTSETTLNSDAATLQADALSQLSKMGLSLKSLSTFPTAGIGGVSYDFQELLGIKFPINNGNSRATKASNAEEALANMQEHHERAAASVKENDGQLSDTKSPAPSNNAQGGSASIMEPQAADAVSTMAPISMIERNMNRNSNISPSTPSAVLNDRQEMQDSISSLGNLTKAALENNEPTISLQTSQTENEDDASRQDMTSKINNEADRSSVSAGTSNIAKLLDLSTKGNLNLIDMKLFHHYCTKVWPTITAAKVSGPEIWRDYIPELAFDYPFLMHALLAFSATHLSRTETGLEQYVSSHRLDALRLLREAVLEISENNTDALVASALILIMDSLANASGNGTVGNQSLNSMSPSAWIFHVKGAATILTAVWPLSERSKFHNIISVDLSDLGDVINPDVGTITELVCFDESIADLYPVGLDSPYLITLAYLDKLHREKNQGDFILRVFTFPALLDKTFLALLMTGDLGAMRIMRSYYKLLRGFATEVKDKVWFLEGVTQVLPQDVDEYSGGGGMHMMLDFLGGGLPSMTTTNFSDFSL
Method in brief: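 Detection of bound protein used fluorescent anti-GST, with scans normalised by masliner. The proteins were GST-tagged yeast transcription factors applied at about 100-200 nM to universal all-10-mer Agilent arrays made double-stranded by primer extension. Each ungapped eight-base word, pooled with its reverse complement, was scored with an E-score from the Universal PBM Analysis Suite.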

Sequence | PBM E-score
AATCTTCT | -0.207
TCGGGAGA | -0.0351
CTGTGACA | -0.246
ATAGACGC | -0.0964
CCGCTGCA | -0.117
ATCAGGAA | -0.0338
CTGCGAAG | -0.0517
AACAGAGC | -0.118
AACATCTG | -0.0922
AGCCGAGA | -0.0386
GGCACCCC | -0.0796
TCCTCAGA | -0.193
CGCGCAAG | 0.0883
CAACAACC | 0.114
CTAAGTTA | -0.0439
AAGATCAT | 0.0203
CCTCTGAC | -0.275
CGAGCCAC | 0.0689
CCGAATAA | 0.177
CCACAAAG | -0.0612
ACCCACAT | -0.0118
GTACGCTA | 0.264
ACAGAAGA | -0.185
ACGGTGTG | 0.0764
ACATTTTG | -0.142

Sequence | PBM E-score
CGGCCCAA | 0.167
CGGAACCA | -0.128
ATTGATGA | -0.0663
GACTAGCC | -0.156
ACCGCGAG | 0.136
TTAGTAAA | 0.133
AGGGGATG | -0.179
AAGTAGGC | -0.0459
AGATGCCG | 0.084
ACGATGGA | 0.344
AGCATAGG | -0.219
CGGATATC | 0.202
ATAGTCGA | -0.018
ACACTAGA | 0.0609
CCCATGCA | -0.319
TCTATAAA | 0.218
CATCTTAC | -0.0542
ACAACTAT | -0.0179
GCTATAGC | -0.0757
AAGCTAGG | -0.171
CCCCAGTC | -0.00479
CAGCAATA | -0.177
AGGGCTTC | -0.0752
ATCAAGAT | -0.0977
GGCCGATA | -0.0563

Sequence | PBM E-score
ACCTATCG | 0.0607
TTCACGAA | 0.139
ATGGCTTA | 0.0249
TACTTTAA | 0.0517
ACAAGGGG | -0.17
CAGGCCCC | -0.175
CCAATATA | -0.119
CATTCCGG | -0.196
GCCATTAC | 0.0133
GATTTAAA | -0.102
CGTCTTGC | -0.0751
GCTTGTTA | 0.117
GCCCTTTA | -0.0758
AATAAGCT | -0.0583
ACCACCAT | -0.0573
CCCTTGCC | -0.128
GATTTTGC | -0.0509
GCGACACC | 0.0389
ACCCCTTC | -0.246
CATCGCCG | 0.009
CCACCGGC | -0.154
CGTCTTTA | 0.133
ATCGGGTC | 0.0529
CAGCACTC | 0.0219
ATTCTTAA | 0.176

Sequence | PBM E-score
CCGGGAAC | 0.175
GCTATCCA | -0.0191
GCGGCAAC | -0.114
ACATGCGA | 0.128
CGTTAGAG | 0.104
ATGTGGTA | -0.0775
GCGAGAGA | -0.11
ACTGATCT | 0.0925
GAGGACAC | -0.0694
ACCTCCAC | -0.229
CCCTTTTA | -0.262
GCCATACC | -0.035
CGGACTAG | -0.202
TCGTCAGA | -0.231
AGGATAGG | -0.0689
GAGTTATA | 0.039
GGCGAGGA | -0.182
CCGACTCC | -0.0901
GGTAATCA | -0.163
CTTGCGTC | -0.109
TAAAAGGA | 0.0854
GACGTGGA | -0.114
AAGTAGCC | -0.268
AGAGAGAC | -0.252
GCGAATTA | 0.179

Sequence | PBM E-score
GAGCTTGC | -0.231
ACAATTGG | -0.118
AACATTTC | -0.0609
ACAGCGCA | -0.233
ATCCGGCG | -0.0413
ATACGGAT | 0.357
AAATCCAT | 0.0546
AGCTACAG | -0.329
ATGTGAAT | 0.12
AGTTTACA | -0.0264
AAAGAAGC | -0.0105
CCTCCTTC | -0.183
CCAAGCGC | -0.251
ATTAGCAC | 0.0776
GGACTGCC | -0.21
GGACTATA | 0.00055
AGGTACCG | 0.028
CGAATTGC | 0.152
TCGCGGAA | 0.00431
GAATCTGC | -0.114
CTACCCCC | -0.339
GAGCCGCA | -0.0151
CCGACCGA | 0.0988
ATGATTTA | -0.0121
ACACCGAC | 0.0418

Sequence | PBM E-score
GGCAAATA | 0.0411
CATCGGGA | -0.0687
CAGGAGGG | -0.344
GTCCCATA | 0.0108
CGGACACC | -0.11
AGCGGAGC | 0.0226
GGGCGTTA | 0.0857
GTCCGACA | -0.016
TAGTCTGA | -0.194
CGGATCAA | -0.0565
CCGCCGCA | 0.00226
CTCTCATC | -0.078
CCCGGATA | -0.00303
CGTCCACA | -0.175
GGCTCTAC | 0.0291
TAAGACAA | 0.0602
CATAATTA | -0.00138
CTCCGAGC | 0.0315
AAGATGTA | 0.0093
ACGGGTTC | -0.0214
ACCCTAAT | -0.14
GACGGTGA | -0.112
CGTAGAGC | 0.201
CCATTCGA | -0.027
GCAACCAA | -0.155

Sequence | PBM E-score
CTTCCCAC | -0.00438
GGAACACC | -0.233
AGAACTAA | -0.0173
ATCGACGG | -0.132
GACCCTCC | -0.0284
TCAACGCA | 0.014
AGAGATAA | -0.106
CACACACG | 0.0146
ATCGGCTG | -0.158
CGTGGACC | -0.132
AGTTTTTC | -0.0455
AACGCAGA | 0.103
CGTTGCCA | 0.165
GGGCTGAA | -0.094
ATCGATTC | 0.0179
GCGCAATA | 0.144
ATCAGGGG | -0.186
AGAAGGGC | -0.0899
GGCACATA | -0.0498
GTGTCCCA | -0.077
CAGCGAAC | 0.0986
GGAGGCAA | -0.152
